Data from the antibiotic and cytotoxicity screens of Wong et al. (2023).
The list shows a part of the results.

Experiments:
HSkMC = human skeletal muscle cells; experiment: cytotoxicity call (relative viability < 0.9); details: 10 µM
HepG2 = experiment: cytotoxicity call (relative viability < 0.9); details: 10 µM
S. aureus RN4220 = experiment: growth inhibition call (relative growth <= 0.2); details: 50 µM

## Cc1cc(C(=O)Nc2cccc3c2O[C@H](CN(C)C(=O)Nc2ccc4c(c2)OCO4)[C@@H](C)CN([C@H](C)CO)C3=O)n(C)n1
HSkMC
  cytotoxicity call: inactive
HepG2
  cytotoxicity call: inactive
S. aureus RN4220
  growth inhibition call: inactive

## C[C@@H]1CN([C@H](C)CO)C(=O)c2cc(N(C)C)ccc2O[C@@H](C)CCCCO[C@@H]1CN(C)C(=O)Nc1ccc(C(F)(F)F)cc1
HSkMC
  cytotoxicity call: inactive
HepG2
  cytotoxicity call: inactive
S. aureus RN4220
  growth inhibition call: inactive

## CCOC(=O)CCc1n[nH]c(=O)[nH]c1=O
HSkMC
  cytotoxicity call: inactive
HepG2
  cytotoxicity call: inactive
S. aureus RN4220
  growth inhibition call: inactive

## O=C(Nc1ccccc1)c1ccco1
HSkMC
  cytotoxicity call: inactive
HepG2
  cytotoxicity call: inactive
S. aureus RN4220
  growth inhibition call: inactive

## Cc1noc(C)c1S(=O)(=O)N(C)C[C@H]1Oc2ccc(NS(=O)(=O)c3ccc(Cl)cc3)cc2C(=O)N([C@@H](C)CO)C[C@H]1C
HSkMC
  cytotoxicity call: inactive
HepG2
  cytotoxicity call: inactive
S. aureus RN4220
  growth inhibition call: inactive

## CCC(=C(CC)c1ccc(O)cc1)c1ccc(O)cc1
HSkMC
  cytotoxicity call: inactive
HepG2
  cytotoxicity call: active
S. aureus RN4220
  growth inhibition call: inactive

## O=C(/C=C/c1ccc(O)c(O)c1)O[C@@H]1C[C@](O)(C(=O)O)C[C@@H](OC(=O)/C=C/c2ccc(O)c(O)c2)[C@H]1O
HSkMC
  cytotoxicity call: inactive
HepG2
  cytotoxicity call: inactive
S. aureus RN4220
  growth inhibition call: inactive

## C[C@H](CO)N1C[C@H](C)[C@@H](CN(C)C(=O)C2CCCCC2)Oc2cc(C#CCN(C)C)ccc2S1(=O)=O
HSkMC
  cytotoxicity call: inactive
HepG2
  cytotoxicity call: inactive
S. aureus RN4220
  growth inhibition call: inactive

## C[C@@H]1CCCCO[C@@H](CN(C)Cc2ccc3c(c2)OCO3)[C@H](C)CN([C@@H](C)CO)C(=O)c2cc(NC(=O)c3ccccc3)ccc2O1
HSkMC
  cytotoxicity call: inactive
HepG2
  cytotoxicity call: active
S. aureus RN4220
  growth inhibition call: inactive

## COCC#Cc1ccc([C@H]2[C@@H](CO)N3C(=O)CN(C(=O)CN4CCOCC4)C[C@H]23)cc1
HSkMC
  cytotoxicity call: inactive
HepG2
  cytotoxicity call: inactive
S. aureus RN4220
  growth inhibition call: inactive
